Measurements as given in PubChem BioAssay AID485281 (National Center for Advancing Translational Sciences (NCATS), 2010).
About 260 (0.074%) of roughly 350,000 compounds were called active. Inconclusive results, whose numbers are uncertain, are shown with a selection of clear calls. The call rests on the fitted dose curve; in most records, active means well fitted inhibition curve with a large enough effect; inconclusive means small, poorly fitted or top-dose-only effect; inactive means no such curve, though single readings can be large or run the other way. Potencies of inconclusive entries are doubtful fits and often do not repeat.

biological target: Ferritin light chain (Equus caballus) (UniProt P02791); assay: qHTS Assay for Identification of Novel General Anesthetics; settings: apoferritin/1-aminoanthracene competitive binding, fluorescence; activity change, negative = displacement: at 77.5 µM (top of the series); further: nearly all actives have a fitted effect of over 20% in size
Procedure, shortened: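 Steps: apoferritin (10 uM) was premixed with half-saturated 1-AMA in PBS, compounds were pin-transferred, plates stood 10 min at room temperature, fluorescence was read at 380/535 nm, and curves were fitted with a Hill equation.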
On the % scale 0 is the no-effect control and ±100 the full control effect; potency means the concentration at half of the fitted maximal effect; tags describe the fitted curve by direction and shape.

Sequence of UniProt P02791 (P02791 whole entry, looked up): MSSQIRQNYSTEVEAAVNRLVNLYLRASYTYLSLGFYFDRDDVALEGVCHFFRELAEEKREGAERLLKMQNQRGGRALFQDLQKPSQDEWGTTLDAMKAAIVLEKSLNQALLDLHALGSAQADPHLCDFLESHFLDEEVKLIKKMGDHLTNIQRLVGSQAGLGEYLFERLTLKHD

SMILES | Potency | activity change, negative = displacement
Cc1ccc(CNS(=O)(=O)c2ccccc2[N+](=O)[O-])cc1 | inconclusive: 25.1 µM [inhibitor, partial curve] | –
CC(C)COc1ccc(/C(O)=C2/C(=O)C(=O)N(CCN(C)C)C2c2ccncc2)cc1 (configuration not stated) | inconclusive: 28.2 µM [inhibitor, partial curve] | –
CC(Oc1ccccc1)C(=O)NC1=NCCS1 (configuration not stated) | – | inactive: -4.15%
O=c1[nH]n2c(C(F)(F)F)cc(C3CC3)nc2c1N=Nc1ccccc1 | – | inactive: -2.72%
O=C(COC(=O)c1ccc(Br)o1)Nc1cccc(S(=O)(=O)N2CCCCCC2)c1 | inconclusive: 17.8 µM [inhibitor, partial curve] | –
CCOC(=O)c1cccc(NC(=O)c2ccc3c(c2)C(=O)N(CC2CCCO2)C3=O)c1 (configuration not stated) | inconclusive: 25.1 µM [inhibitor, partial curve] | –
C/C(=C\C(=O)c1ccc(Br)cc1)NCc1ccc2c(c1)OCO2 | inconclusive: 15.8 µM [inhibitor, partial curve] | –
CCn1nc(C(=O)N[C@@H](CCSC)c2nc3ccccc3[nH]2)c2ccccc2c1=O | inconclusive: 39.8 µM [inhibitor, partial curve] | –
CC1CCCC(C)N1C(=O)C1CC(c2ccc(F)cc2)=NO1 (configuration not stated) | inconclusive: 56.2 µM [inhibitor, single point] | –
CCCCCCOc1ccc(OC(=O)c2cccnc2)cc1 | inconclusive: 10 µM [inhibitor, partial curve] | –
COc1cc(CNCc2ccccn2)ccc1OCc1c(Cl)cccc1Cl | inconclusive: 17.8 µM [inhibitor, partial curve] | –
COc1ccc(-c2ccc(NS(=O)(=O)c3cc([N+](=O)[O-])ccc3C)cc2)nn1 | inconclusive: 28.2 µM [inhibitor, partial curve] | –
Cc1ccc(OCC(=O)c2ccc3c(c2)CCCC3)cc1C | inconclusive: 31.6 µM [inhibitor, partial curve] | –
CCc1c(C#N)c(SCCC(=O)Nc2ccc(OC)cc2)nc2c1C(=O)CC(C)(C)C2 | inconclusive: 25.1 µM [inhibitor, partial curve] | –
O=C(NCc1ccc2c(c1)OCO2)c1ccc(N2CCCCCC2)c([N+](=O)[O-])c1 | inconclusive: 14.1 µM [inhibitor, partial curve] | –
COc1cccc(-c2nnc3n2N=C(c2ccccc2OC)CS3)c1 | inconclusive: 39.8 µM [inhibitor, partial curve] | –
O=C(Nc1ccc(Nc2ccccc2)cc1)c1ccccc1F | inconclusive: 20 µM [inhibitor, partial curve] | –
